From the RNAGym collection of RNA variant scans (doi:10.7554/elife.90254)
Read counts are not given, so values of variants with three or more changes are uncertain.

B1: LINE1-full (parent)
chain: UACGUAGGUGGUUUUCCCCUGAUAGUGCUAAGGGGGCCUGGAAGUUUGGACUGGGCAGAGCUCAACACAGCGUGGCAAAGUGGCUGUGGCUAGACUGCCUCUCUGGAUUCCUCGUCACUCAGCAGGGCAUCUCUGAGAGAAAUGCC

Variants of: B1
Test: self-cleavage, relative activity (ratio to wild type); higher = more cleavage; in vitro, sequencing; the parent is a self-cleaving ribozyme

| Variant | self-cleavage |
| --- | --- |
| UACGUAGGUGGUUUUCCCCUGAUAGUGCUAAGGGGGCCUGGAAGUUUGGACUGGGCAGAGCUCAACACAGCGUGGCAAAGAGGCUGCGGCUAGACCGCCUCUCUGGAUUCCUUGUCACUCAGCAGGGCAUCUCUGAGAGAAAUGCC [U81A U87C U96C C113U] | 0.16 |
| UACGUAGGUGGUUUUCCCCUGAUAGUGCUAAGGGGGCCUGGAAGUUUGGACUGGGCAGAGCUCAACACAGCGUGGCAAUGUGGCUGUGGCUAGACUGCCUCUCUGGAAUCCUCGUCACUCAGCAGGGCAUCUCUGAGGGAAAUGCC [A79U U108A A138G] | 1.5 |
| UACGUAGGUGGUUUUCCCCUGAUAGUGCUAAGGGGGCCUGGAAGUUUGGACUGGGCAGAGCUCAACACAGCGUGGCAAAGAGGCUGUGGCAAGACUGCCUCUCUGGAUUCCUCGUCUCUCAGCAGGGCAUCUCUGAGAGAAAUGCC [U81A U91A A117U] | 0.69 |
| UACGUAGGUGGUUUUCCCCUGAUAGUGCUAAGGGGGCCUGGAAGUUUGGACUGGGCAGAGCUCAACACAGCGUGGCAAAAUGGCUGUGGCUAGACUGCCCCUCUGGAUUCCUCGUCACUCAGCAGGGCAUCUCUGAGAGAAAAGCC [G80A U100C U143A] | 1.96 |
| UACGUAGGUGGUUUUCCCCUGAUAGUGCUAAGGGGGCCUGGAAGUUUGGACUGGGCAGAGCUCAACACAGCGUGGCAAAAUGGCUGUGGCCAGACUGCCUCUCUGGAUUCCUCGCCACUCAGCAGGGCAUCUCUGUGAGAAAUGCC [G80A U91C U115C A136U] | 0.84 |
| UACGUAGGUGGUUUUCCCCUGAUAGUGCUAAGGGGGCCUGGAAGUUUGGACUGGGCAGAGCUCAACACAGCGUGGCAAAGAGGCUGUGGCUAGACCGCCUCUCUGGACUUCUCGUCACUCAGCAGGGCAUCUCUGAGAGAAAUGCC [U81A U96C U108C C110U] | 0.31 |
| UACGUAGGUGGUUUUCCCCUGAUAGUGCUAAGGGGGCCUGGAAGUUUGGACUGGGCAGAGCUCAACACAGCGUGGCAAUGUGGCCAUGGCUAGACUGCCUCUCUGGAUUCCUCGUCACUCAGCAGGGCAUCUCUGAGAGAAAUGCC [A79U U85C G86A] | 0.06 |
| UACGUAGGUGGUUUUCCCCUGAUAGUGCUAAGGGGGCCUGGAAGUUUGGACUGGGCAGAGCUCAACACAGCGUGGCAAUGAGGCUGUGGCUAGACUGCCUCUCCGGAAUCCUCGUCACUCAGCAGGGCAUCUCUGAGAGAAAUGCC [A79U U81A U104C U108A] | 1.96 |
| UACGUAGGUGGUUUUCCCCUGAUAGUGCUAAGGGGGCCUGGAAGUUUGGACUGGGCAGAGCUCAACACAGCGUGGCAAAGAGGCUGUGGCUAGACUGCCUCUCUGGAUUCCUCGUCACUCAGCAGGGCAUCUCUAAGAGAGAUGCC [U81A G135A A141G] | 2.26 |
| UACGUAGGUGGUUUUCCCCUGAUAGUGCUAAGGGGGCCUGGAAGUUUGGACUGGGCAGAGCUCAACACAGCGUGGCAAAAUGGCUGUGGCCAGACUGCCUCUCUGGAUUCCUCGUCACUCAGCAGGGCAUCUCCGAGAGAAAUGCC [G80A U91C U134C] | 1.15 |
| UACGUAGGUGGUUUUCCCCUGAUAGUGCUAAGGGGGCCUGGAAGUUUGGACUGGGCAGAGCUCAACACAGCGUGGCAAGGUGGCUGUGGCUAGACUGCCUCUCUGGAUUCCUCGUCACUCAGCAGGGCAACUCUGAGAGAGAUGCC [A79G U130A A141G] | 0.96 |
| UACGUAGGUGGUUUUCCCCUGAUAGUGCUAAGGGGGCCUGGAAGUUUGGACUGGGCAGAGCUCAACACAGCGUGGCAAUGUGGCUGUGGCUAGACUGCCUCCCUGGAUUCCUCGUCACUCAUCAGGGCAUCUCUGAGAGAAAUGCC [A79U U102C G122U] | 1.5 |
| UACGUAGGUGGUUUUCCCCUGAUAGUGCUAAGGGGGCCUGGAAGUUUGGACUGGGCAGAGCUCAACACAGCGUGGCAAAGAGGCUGUGGCUAGACUGCCUCACUGGAUUCCUCGUCACUCAGCAGGGCACCUCUGAGAGAAAUGCC [U81A U102A U130C] | 2.78 |
| UACGUAGGUGGUUUUCCCCUGAUAGUGCUAAGGGGGCCUGGAAGUUUGGACUGGGCAGAGCUCAACACAGCGUGGCAAAGAGGCCGUGGCUAGACUGCCUCUCUGCAUUCCUCGUCACUCAGCAGGGCAUCUCUGAGAGAAAUGCC [U81A U85C G106C] | 0.14 |
| UACGUAGGUGGUUUUCCCCUGAUAGUGCUAAGGGGGCCUGGAAGUUUGGACUGGGCAGAGCUCAACACAGCGUGGCAAACCGGCUGUGGCUAGACUGCCUCUCUGGAUUCCUCGUCACUCAGCGGGGCAUCUCUGAGAGAAAUGCC [G80C U81C A124G] | 0.44 |
| UACGUAGGUGGUUUUCCCCUGAUAGUGCUAAGGGGGCCUGGAAGUUUGGACUGGGCAGAGCUCAACACAGCGUGGCAAAGAGGCUGUGGCUAGACUGCCUCUCUAGAUUCCUCGCCACUCAGCAGGGCACCUCUGAGAGAAAUGCC [U81A G105A U115C U130C] | 2.79 |
| UACGUAGGUGGUUUUCCCCUGAUAGUGCUAAGGGGGCCUGGAAGUUUGGACUGGGCAGAGCUCAACACAGCGUGGCAAUGUGGCUGUGGCUAGACUGCCUCUCUGGACUCCUCGCCACUCAGCAGGGCAUCUCUGUGAGAAAUGCC [A79U U108C U115C A136U] | 2.17 |
| UACGUAGGUGGUUUUCCCCUGAUAGUGCUAAGGGGGCCUGGAAGUUUGGACUGGGCAGAGCUCAACACAGCGUGGCAAAGAGGCUGUGGCUAGACUGCCUCUCUGGAUUCCUCGUCACUCAGCAGGACGUCUCUGAGAGAAAUGCC [U81A G127A A129G] | 2.1 |
| UACGUAGGUGGUUUUCCCCUGAUAGUGCUAAGGGGGCCUGGAAGUUUGGACUGGGCAGAGCUCAACACAGCGUGGCAAAGAGGCUGAGGCUAGACUGCCUCUCUGGAUUCCUCGUCACUCAGCGGGGCAUCUCUGAGAGAAAUGCC [U81A U87A A124G] | 0.26 |
| UACGUAGGUGGUUUUCCCCUGAUAGUGCUAAGGGGGCCUGGAAGUUUGGACUGGGCAGAGCUCAACACAGCGUGGCAAAGAGGCUGCGGCUAGACUGCCUCUCUGGAUUCCUCGUCACUCAGCAGGGCUUCUCUGAGAGAAAUGCC [U81A U87C A129U] | 0.25 |

| Variant | self-cleavage |
| --- | --- |
| UACGUAGGUGGUUUUCCCCUGAUAGUGCUAAGGGGGCCUGGAAGUUUGGACUGGGCAGAGCUCAACACAGCGUGGCAAAGAGGCUGUGGCUAGACAGCCUCUCUGGGUUCCUCGUCACUCAGCAGGGCAUCUCUGAGAGGAAUGCC [U81A U96A A107G A140G] | 0.07 |
| UACGUAGGUGGUUUUCCCCUGAUAGUGCUAAGGGGGCCUGGAAGUUUGGACUGGGCAGAGCUCAACACAGCGUGGCAAUGUGGCUGUGGCUAGACUGCCUCAAUGGAUUCCUCGUCACUCAGCAGGGCAUCCCUGAGAGAAAUGCC [A79U U102A C103A U132C] | 1.64 |
| UACGUAGGUGGUUUUCCCCUGAUAGUGCUAAGGGGGCCUGGAAGUUUGGACUGGGCAGAGCUCAACACAGCGUGGCAAAAUGGCUGCGGCUAGACUGCCUCUCUGGAUUCCUCGUCACUCAGCAGGGCAUCUCUGAGAGAAGUGCC [G80A U87C A142G] | 0.28 |
| UACGUAGGUGGUUUUCCCCUGAUAGUGCUAAGGGGGCCUGGAAGUUUGGACUGGGCAGAGCUCAACACAGCGUGGCAAAGAGGCUGCGGCUAGACUGCCUCACUGGAUUCCUCGUCGCUCAGCAGGGCAUCUCUGAGAGAAAUGCC [U81A U87C U102A A117G] | 0.1 |
| UACGUAGGUGGUUUUCCCCUGAUAGUGCUAAGGGGGCCUGGAAGUUUGGACUGGGCAGAGCUCAACACAGCGUGGCAAUGUGGCUGUGGCUAGACUGCCUCUCUGGAUUCCUAGUCACUCAGCAUGGCAUCCCUGAGAGAAAUGCC [A79U C113A G125U U132C] | 1.39 |
| UACGUAGGUGGUUUUCCCCUGAUAGUGCUAAGGGGGCCUGGAAGUUUGGACUGGGCAGAGCUCAACACAGCGUGGCAAAGAGGCUGUGGCUAGACUGCCUCUCUGGAGUCCUCGUCACUCAGCAGGGCAUCUCUGAGAGAAAAGCC [U81A U108G U143A] | 2.19 |
| UACGUAGGUGGUUUUCCCCUGAUAGUGCUAAGGGGGCCUGGAAGUUUGGACUGGGCAGAGCUCAACACAGCGUGGCAAAGAGGCUGUGGCUAGACUGCCUCUCUGGAUUCCUCUUCACCCAGCGGGGCAUCUCUGAGAGAAAUGCC [U81A G114U U119C A124G] | 1.76 |
| UACGUAGGUGGUUUUCCCCUGAUAGUGCUAAGGGGGCCUGGAAGUUUGGACUGGGCAGAGCUCAACACAGCGUGGCAAAGAGGCUGAGGCUAGGCUGCCUCUCUGGAUUCCUCGUCACUCAGCAGGGCAUCCCUGAGAGAAAUGCC [U81A U87A A94G U132C] | 0 |
| UACGUAGGUGGUUUUCCCCUGAUAGUGCUAAGGGGGCCUGGAAGUUUGGACUGGGCAGAGCUCAACACAGCGUGGCAAAAUGGCUGUGGCUAGACUGCCUCUCUGGAUUCCUCGUCACUCAGCGUGGCAUCUCUGGGAGAAAUGCC [G80A A124G G125U A136G] | 0.76 |
| UACGUAGGUGGUUUUCCCCUGAUAGUGCUAAGGGGGCCUGGAAGUUUGGACUGGGCAGAGCUCAACACAGCGUGGCAAAUUGGCUGUGGCUAGACUGCCUCUCUGGAUUCCUCGUCGCUCAGCGGGGCAUCUCUGAGAGAAGUGCC [G80U A117G A124G A142G] | 1.48 |
| UACGUAGGUGGUUUUCCCCUGAUAGUGCUAAGGGGGCCUGGAAGUUUGGACUGGGCAGAGCUCAACACAGCGUGGCAAAGAGGCUGUGGCUAGACUGCCCCUCUGGAUUCCUCGUCACUCAGCAGGGCAUCUCUGAGAGGAAUGCC [U81A U100C A140G] | 2.99 |
| UACGUAGGUGGUUUUCCCCUGAUAGUGCUAAGGGGGCCUGGAAGUUUGGACUGGGCAGAGCUCAACACAGCGUGGCAAAGAGGCUGUGGCUAGACUGCCUCCCUGGAUUCCACGUCACUCAGCAGGGCAUCUCUGAGAGAAAUGCC [U81A U102C U112A] | 2.57 |
| UACGUAGGUGGUUUUCCCCUGAUAGUGCUAAGGGGGCCUGGAAGUUUGGACUGGGCAGAGCUCAACACAGCGUGGCAAGGUGGCUGUGGCUAGACUGCCUCUCUGGAUCCCUCGUCACUCAGCAGGGCGCCUCUGAGAGAAAUGCC [A79G U109C A129G U130C] | 0 |
| UACGUAGGUGGUUUUCCCCUGAUAGUGCUAAGGGGGCCUGGAAGUUUGGACUGGGCAGAGCUCAACACAGCGUGGCAAGGUGGCUGUGGCUAGACUGCCUCUCUGGAUUCCUCGUCACCCAGCGGGGCAUCUCUGAGAGAAAUGCC [A79G U119C A124G] | 2.68 |
| UACGUAGGUGGUUUUCCCCUGAUAGUGCUAAGGGGGCCUGGAAGUUUGGACUGGGCAGAGCUCAACACAGCGUGGCAAUGUGGCUGUGGCUAGACUGCCUCUCUGGAUUCUUCGUCACUCAGCAGGGCAACUCUGAGAGAAAUGCC [A79U C111U U130A] | 2 |
| UACGUAGGUGGUUUUCCCCUGAUAGUGCUAAGGGGGCCUGGAAGUUUGGACUGGGCAGAGCUCAACACAGCGUGGCAAAGAAGCUGUGGCUAGACUGCCUCUCUGGAUUCCUCGUCACUCAGCAGGGCAUCUCUGAGAGAAACGCC [U81A G82A U143C] | 2.01 |
| UACGUAGGUGGUUUUCCCCUGAUAGUGCUAAGGGGGCCUGGAAGUUUGGACUGGGCAGAGCUCAACACAGCGUGGCAAGGUGGCUGUGGCUAGACUGCCUCUCUGGAUACCUCGUCACUCAGCAGGGCAUCUCUGAGAGAGAUGCC [A79G U109A A141G] | 1.58 |
| UACGUAGGUGGUUUUCCCCUGAUAGUGCUAAGGGGGCCUGGAAGUUUGGACUGGGCAGAGCUCAACACAGCGUGGCAAGGUGGCUGUGGCUAGACUGCCUCUCUGGAUUCCCCGUCACUCAGCAGGGCAUCACUGAGAGAAAUGCC [A79G U112C U132A] | 0.99 |
| UACGUAGGUGGUUUUCCCCUGAUAGUGCUAAGGGGGCCUGGAAGUUUGGACUGGGCAGAGCUCAACACAGCGUGGCAAAAUGGCAGUGGCUAGACUGCCUCUCUGGAUUCCUCGUCACUCAGCAGGGCAUCUCUGAGAGAAAAGCC [G80A U85A U143A] | 0.08 |
